# From PubChem BioAssay AID651820 (National Center for Advancing Translational Sciences (NCATS), 2012)
# Out of some 340,000 compounds screened, about 12,000 (3.5%) were called active. This list was built around the results that the source calls inconclusive (neither active nor inactive); the mix of calls is not that of the screen. The call rests on the fitted dose curve; in most records, active means well fitted inhibition curve with a large enough effect; inconclusive means small, poorly fitted or top-dose-only effect, or another doubt; inactive means no such curve, though single readings can be large or run the other way. No potency is given beside an inconclusive call; the fits are too rough.
# Assay: qHTS Assay for Inhibitors of Hepatitis C Virus (HCV)
# Details: Huh7.5.1 HCVcc-Cre (HCVcc is cell-culture hepatitis C virus) infection, luciferase reporter, 44 h; activity change, negative = inhibition: at 41.8 µM (top of the series) unless noted
# Summary of the method: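 Seed cells (1,000/well) for 4 h; treat with compound and infect with HCVcc-Cre, moi about 0.5. Incubate 44 h, then detect luciferase activity.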
# On the % scale 0 is the no-effect control and ±100 the full control effect; potency means the concentration at half of the fitted maximal effect; tags describe the fitted curve by direction and shape.
Compound,"activity change, negative = inhibition",Potency
Cc1cc(C)c2nc(SCC(=O)NCCC3=CCCCC3)cc(C)c2c1,inactive: 22%,–
O=C(Nc1ccc(Cl)cc1)Nc1ccccc1CC[N+](=O)[O-],–,"inconclusive [inhibitor, single point]"
CC(C)NC(=O)CSc1nnc(-c2ccncc2)n1-c1ccccc1,–,"inconclusive [inhibitor, single point]"
O=C(CN1C(=O)/C(=C\c2cccc(Br)c2)Oc2ccccc21)NCC1CCCO1 (stereo unspecified),inactive: 3.5%,–
COC(=O)Nc1ccc2c(c1)N(C(=O)CCCl)c1ccccc1S2,–,"inconclusive [inhibitor, single point]"
CC1(c2cccc(Br)c2)NC(=O)NC1=O (stereo unspecified),inactive: 7.19%,–
CCOc1cc(N2CCOCC2)c(OCC)cc1NC(=O)CSc1nccc(C)n1,–,"inconclusive [inhibitor, partial curve]"
CC(=O)c1ccc(NC(=O)CCCN2C(=O)C(c3ccccc3)Oc3cccnc32)cc1 (stereo unspecified),inactive: -21.5%,–
Cc1ccc(/C=N/NC(=O)c2cc(-c3ccc(C)o3)[nH]n2)cc1,–,"inconclusive [inhibitor, partial curve]"
CC(=O)CCc1ccc(OCC(O)CNC2CCCc3ccccc32)cc1 (stereo unspecified),–,"inconclusive [inhibitor, partial curve]"
COc1ccc(S(=O)(=O)N2CCC3(CC2)OCCN3S(=O)(=O)c2cccs2)cc1,–,"inconclusive [inhibitor, single point]"
COC(=O)c1[nH]c2cc(OC)c(OC)cc2c1NC(=O)c1cccc(OC)c1,–,"inconclusive [inhibitor, partial curve, poor fit]"
Cc1ccc(OC(=O)c2ccc3nc(C)sc3c2)cc1,inactive: 4.3%,–
CCOc1cccc2sc(=NC(=O)c3ccc(S(=O)(=O)N4CCOCC4)cc3)n(C)c12,–,"inconclusive [inhibitor, full curve]"
CCc1ccc(/C=N/n2c(COc3ccccc3)n[nH]c2=S)cc1,inactive: -7.4%,–
O=C(CN(Cc1ccco1)C(=O)c1cc(=O)[nH]c2ccccc12)Nc1ccccc1Br,–,inactive
CC1CC(C)CC(C)C(O)C(C#N)=CC=CCC(C2CCCC2C(=O)O)OC(=O)CC(O)C(C)C1 (stereo unspecified),–,"inconclusive [inhibitor, partial curve]"
Fc1ccc(Cn2ccc(-c3cnc(-c4ccccc4)s3)n2)cc1,–,active: 10 µM
CCOc1ccc(CN(C(=O)c2cc3ccccc3oc2=O)C2CC2)cc1,inactive: 6.06%,–
N#Cc1ccc(-c2ccccc2)nc1SCCN1CCOCC1,–,"inconclusive [inhibitor, full curve]"
COCOc1ccc(/C=C/C(=O)c2c(O)cc(OCOC)cc2OCOC)cc1,–,"inconclusive [inhibitor, partial curve, poor fit]"
O=C(CCC(=O)N(CC(=O)NC1CCCC1)Cc1ccccc1Cl)Nc1nccs1,inactive: 4.71%,–
N[C@H]1C(O)O[C@H](CO)[C@@H](O)[C@@H]1O (stereo partly specified),inactive: -2.29%,–

Compound,"activity change, negative = inhibition",Potency
CCN(CC)S(=O)(=O)c1ccc(NC(=O)c2cc(-c3cccs3)nc3ccccc23)cc1,–,"inconclusive [inhibitor, partial curve, poor fit]"
CC(=O)Nc1ccc(Nc2nc(C)c([N+](=O)[O-])c(N(C)c3ccccc3)n2)cc1,–,active: 17.8 µM
COC(=O)c1ccc(CN(c2ccc(C)cc2)S(=O)(=O)c2ccc3c(c2)OCCO3)o1,–,"inconclusive [inhibitor, single point]"
CC1=CC=CC2=N/C(=N\S(=O)(=O)c3ccc(F)cc3F)c3ccccc3CN12,–,"inconclusive [inhibitor, single point]"
CC(C)(C)c1ccc(OCCNC(=S)Nc2ccccc2)cc1,–,"inconclusive [inhibitor, single point]"
Cc1cc(/C=C(\C#N)C(=O)NC2CCCCCC2)c(C)[nH]1,inactive: -17.8%,–
CN1CC(C(=O)c2ccccc2)C(C(=O)c2ccccc2)C1 (stereo unspecified),inactive: -1.88%,–
O=c1[nH]c(=O)n(Cc2ccco2)c2c1C(C(F)(F)F)(C(F)(F)F)N=C(C1CCCCC1)N2,inactive: 8.01%,–
Oc1ccccc1Nc1nc(NCc2ccccc2)c2ccccc2n1,–,active: 11.2 µM
CCOc1cc(/C=N/NC(=O)c2c(-c3ccccc3)noc2C)ccc1O,inactive: -4.22%,–
Cc1cccc(C)c1NC(=O)N1CCN(c2nc3ccccc3s2)CC1,–,"inconclusive [inhibitor, full curve]"
CN(c1ccc(OCC(=O)N2CCN(c3ccc(F)cc3)CC2)cc1)S(=O)(=O)c1cccs1,–,active: 3.55 µM
CCCCN(CCCC)CCn1cnc2c([nH]c3ccc(OC)cc32)c1=O,inactive: -1.65%,–
CC(=O)c1cccc(NC(=O)C(OC(=O)c2cccc(S(=O)(=O)N(C)c3ccccc3)c2)c2ccccc2)c1 (stereo unspecified),–,"inconclusive [inhibitor, partial curve]"
COc1cc2cc3c(N)c(C(=O)NCc4ccco4)sc3nc2cc1OC,–,"inconclusive [inhibitor, single point]"
CCOC(=O)c1sc(NC(=O)c2ccccc2C(=O)O)c(C(=O)OCC)c1C,–,"inconclusive [inhibitor, single point]"
CCC(C(=O)NCC1CCCO1)N(Cc1ccccc1)C(=O)CNS(=O)(=O)c1ccccc1 (stereo unspecified),inactive: 3.16%,–
COc1cccc(/C=N/Nc2cc(N3CCOCC3)ncn2)c1O,–,"inconclusive [inhibitor, partial curve]"
COc1cc(C#Cc2ccc3cc(CCO)oc(=O)c3c2)cc(OC)c1,–,"inconclusive [inhibitor, single point]"
CCOc1cc2c(cc1OCC)-n1cccc1C(c1cccc(F)c1)NC2 (stereo unspecified),–,"inconclusive [inhibitor, single point]"
CC(C)c1ccc(C(=O)Nc2ccc(N3CCOCC3)cc2)cc1,–,"inconclusive [inhibitor, partial curve, poor fit]"
O=C(Cn1nc(-c2ccccc2)ccc1=O)Nc1ccc(N2CCN(C(=O)c3cccs3)CC2)cc1,inactive: -26%,–
CCN(C(=O)C(C)Sc1ccc(S(=O)(=O)N2CCN(C)CC2)cn1)c1ccccc1 (stereo unspecified),inactive: -3.03%,–
